Test results as given in the RNAGym collection of RNA variant scans (doi:10.7554/elife.90254).
The source gives no read counts; variants with many changes may rest on few reads.

B1: LINE1-mini (parent)
chain: GGCAGAGCUCAACACAGCGUGGCAAAGUGGCUGUGGCUAGACUGCC

Variants of: B1
Assay: self-cleavage, relative activity (ratio to wild type); higher = more cleavage; in vitro, sequencing; the parent is a self-cleaving ribozyme

Variant | self-cleavage
GGCAGAGCUCAACACAGCGUGGCAAAUGGGUUGUGGCUUGACUGCC | 0.21
GGCAGAGCUCAACACAGCGUGGCAAAUUUGCUGUGGCUAGAAUGCC | 0.16
GGCAGAGCUCAACACAGCGUGGCAAAUAGGCUGUGGCAAGACUGCC | 0.52
GGCAGAGCUCAACACAGCGUGGCAAAUUGGCAGUGGCUAGAAUGCC | 0.02
GGCAGAGCUCAACACAGCGUGGCAAAUUGGCGGUGGCUAGCCUGCC | 0.03
GGCAGAGCUCAACACAGCGUGGCAAAUUGGCUGUGGCUAGAGUGCU | 0.04
GGCAGAGCUCAACACAGCGUGGCAAAUUGGCGGUGGCUAGACUGUC | 0.04
GGCAGAGCUCAACACAGCGUGGCAAAUAGGGUGUAGCUAGACUGCC | 0.04
GGCAGAGCUCAACACAGCGUGGCAAAGAGGCUGUGGCUCGACCGCC | 0.1
GGCAGAGCUCAACACAGCGUGGCAAAUUGGCUUUGUCUAGACUGCC | 0.1
GGCAGAGCUCAACACAGCGUGGCAAAUCGGCGGUGGCUAGACUGCC | 0.28
GGCAGAGCUCAACACAGCGUGGCAAAUAGGCUGUGAGUAGACUGCC | 0.07
GGCAGAGCUCAACACAGCGUGGCAAAUUGGCUGUGGGUAUACUGCC | 0.16
GGCAGAGCUCAACACAGCGUGGCAAAUAGGCUGUGGCUAGUCUGCC | 1.66
GGCAGAGCUCAACACAGCGUGGCAAAUUGGCUGUCGCUAGACUACC | 0.06
GGCAGAGCUCAACACAGCGUGGCAAAUUGGCUGAGGUUAGACUUCC | 0
GGCAGAGCUCAACACAGCGUGGCAAAUUUGCUCUGGCUAGACUGCC | 0.08
GGCAGAGCUCAACACAGCGUGGCAAAUUGCCUGUGGCUAAACUGCC | 0.06
GGCAGAGCUCAACACAGCGUGGCAAAUUAACUUUGGCUAGACUGCC | 0.31

Variant | self-cleavage
GGCAGAGCUCAACACAGCGUGGCAAAUUGGCAGUGGCUAGUCUGCC | 0.09
GGCAGAGCUCAACACAGCGUGGCAAAGAGACUGUGGCCAGACUGCC | 0.18
GGCAGAGCUCAACACAGCGUGGCAAAUUGGCUGUGGCUAAACUACC | 0.08
GGCAGAGCUCAACACAGCGUGGCAAAUUGGCUGUGGCUAGACCGGC | 0.05
GGCAGAGCUCAACACAGCGUGGCAAAGAGCCUGUGGCUAGACUUCC | 0.06
GGCAGAGCUCAACACAGCGUGGCAAAUUGGCUGGUGCUAGACAGCC | 0.03
GGCAGAGCUCAACACAGCGUGGCAAAUUGGCUGCGGCUAGAUUGCC | 0.03
GGCAGAGCUCAACACAGCGUGGCAAAGAUGCUGUGGAUAGACUGCC | 0.01
GGCAGAGCUCAACACAGCGUGGCAAAUUGGCUGUGGCCAGUGUGCC | 0.04
GGCAGAGCUCAACACAGCGUGGCAAAUCGGCUGUGGCUAGCGUGCC | 0.02
GGCAGAGCUCAACACAGCGUGGCAAAUUCGCUGUGGCAAGACUGCC | 0.24
GGCAGAGCUCAACACAGCGUGGCAAAGAGGAUGUAACUAGACGGCC | 0.07
GGCAGAGCUCAACACAGCGUGGCAAAUUGGCUGUGGCCAGCCUGCC | 0.02
GGCAGAGCUCAACACAGCGUGGCAAAGAUGCUGUGGAUAGCCUGCC | 0.01
GGCAGAGCUCAACACAGCGUGGCAAAUUCGCUGUGGCUAGAGUACC | 0.02
GGCAGAGCUCAACACAGCGUGGCAAAUUGACUGUGGCUAGAGUGCC | 0.05
GGCAGAGCUCAACACAGCGUGGCAAAUUGGCUGUGGCAAGACUGAC | 0.18
GGCAGAGCUCAACACAGCGUGGCAAAUUGGCUGUGGCGAGACCGCC | 0.01
GGCAGAGCUCAACACAGCGUGGCAAAGAGGCUGUGGCUAGACUGGG | 0.02

Variant | self-cleavage
GGCAGAGCUCAACACAGCGUGGCAAAUUGGCUGCGGCUAGGCUGCC | 0.05
GGCAGAGCUCAACACAGCGUGGCAAAUUGGCUGUGGCUAGAUUGCA | 0.09
GGCAGAGCUCAACACAGCGUGGCAAAUUGGCUGUGGCUAUAAUGCC | 0.14
GGCAGAGCUCAACACAGCGUGGCAAAUAGGCUGUGGCUAGACUGCU | 1.14
GGCAGAGCUCAACACAGCGUGGCAAAUCGGCUGUGGCUAGACUACC | 0.03
GGCAGAGCUCAACACAGCGUGGCAAAGAGGCUGUGGCUUGACUGCA | 1.03
GGCAGAGCUCAACACAGCGUGGCAAAUCGUUUGUCGCUAGACUGCC | 0.03
GGCAGAGCUCAACACAGCGUGGCAAAUGGGCUGUGGCUGGACUCCC | 0.01
GGCAGAGCUCAACACAGCGUGGCAAAGAGGAUGUGGGUAGACUGGC | 0.03
GGCAGAGCUCAACACAGCGUGGCAAAUUAGCUUUGGCUAGACUGCA | 0.08
GGCAGAGCUCAACACAGCGUGGCAAAGAGACUGUGGCUAGGCUGCC | 0.06
GGCAGAGCUCAACACAGCGUGGCAAAUUGUCUGUGGCUCGACUGGC | 0.37
GGCAGAGCUCAACACAGCGUGGCAAAUUGGCCGUGGAUAGACUGCU | 0.03
GGCAGAGCUCAACACAGCGUGGCAAAUUGGCUGCGGCUAGACAGCC | 0.02
GGCAGAGCUCAACACAGCGUGGCAAAUUGGCUGAGGCUAGAACGCC | 0.22
GGCAGAGCUCAACACAGCGUGGCAAAUUGACUCUGGCUAGACUGCC | 0.06
GGCAGAGCUCAACACAGCGUGGCAAAGAGGUUGUGGCUAGUCUGCC | 0.18
GGCAGAGCUCAACACAGCGUGGCAAAUUCGCUUUGGCUAGACUGCC | 0.16
